Measured values: PubChem BioAssay AID1645882 (National Center for Advancing Translational Sciences (NCATS), 2021)
Among all 16,000 compounds or so, about 120 (0.75%) were called active. Another 4% or so got no clear call; they are omitted. Calls follow the shape of the dose curve; as a rule, active = well fitted inhibition curve with a large enough effect; inconclusive = small, poorly fitted or top-dose-only effect; inactive = no such curve, though single readings can be large or run the other way. This is one part of the list.

What follows are compounds tested against Rap guanine nucleotide exchange factor 3 (Homo sapiens) (UniProt O95398) (assay: Validation qHTS for antagonist of cAMP-regulated guanine nucleotide exchange factor 3 (EPAC1)). Details: EPAC1 Rap1B-BODIPY-GDP exchange, fluorescence; series mostly up to 150 µM; activity change, negative = inhibition: at the top concentration.
Chain of UniProt O95398 (O95398 whole entry, looked up): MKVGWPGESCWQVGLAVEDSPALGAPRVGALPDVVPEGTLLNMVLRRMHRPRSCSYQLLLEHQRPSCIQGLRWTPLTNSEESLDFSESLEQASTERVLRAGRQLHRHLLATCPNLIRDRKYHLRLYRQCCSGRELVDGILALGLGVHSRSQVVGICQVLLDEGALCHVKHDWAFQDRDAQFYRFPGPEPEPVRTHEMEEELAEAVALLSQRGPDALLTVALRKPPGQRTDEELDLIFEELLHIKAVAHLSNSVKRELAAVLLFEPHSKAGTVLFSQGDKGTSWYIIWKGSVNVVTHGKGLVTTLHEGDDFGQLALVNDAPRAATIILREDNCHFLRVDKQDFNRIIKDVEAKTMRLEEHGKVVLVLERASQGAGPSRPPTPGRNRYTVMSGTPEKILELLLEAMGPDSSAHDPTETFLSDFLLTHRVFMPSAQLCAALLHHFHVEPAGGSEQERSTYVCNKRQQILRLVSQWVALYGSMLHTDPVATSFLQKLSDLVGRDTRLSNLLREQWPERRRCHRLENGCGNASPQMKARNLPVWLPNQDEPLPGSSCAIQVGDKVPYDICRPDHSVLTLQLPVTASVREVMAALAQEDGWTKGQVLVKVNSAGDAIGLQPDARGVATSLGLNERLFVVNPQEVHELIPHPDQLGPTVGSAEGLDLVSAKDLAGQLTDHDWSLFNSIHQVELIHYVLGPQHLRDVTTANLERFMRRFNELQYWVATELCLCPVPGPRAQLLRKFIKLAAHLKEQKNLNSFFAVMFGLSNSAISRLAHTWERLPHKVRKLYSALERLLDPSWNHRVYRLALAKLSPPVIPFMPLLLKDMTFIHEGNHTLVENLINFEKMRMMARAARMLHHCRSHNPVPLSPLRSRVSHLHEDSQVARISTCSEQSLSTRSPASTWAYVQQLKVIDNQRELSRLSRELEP
How it was run: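 Nucleotide exchange followed as fluorescence loss when BODIPY-GDP leaves Rap1B (480 nm excitation, 540 nm emission), read at 5 min intervals over 30 min. Reaction: 100 nM EPAC1, 250 nM RAP1B-BODIPY-GDP, 50 uM GDP; ATA and DMSO define normalization.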
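Also: plate controls were DMSO for no effect and ATA control for full effect; nearly all actives have a fitted effect of over 75% in size.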

Activity change, negative = inhibition, inactive:
COc1ccc(-n2c(=O)c(-c3cccs3)nc3cnc(N4CCOCC4)nc32)cc1 0.0203%
c1ccc2c(c1)CCCN2 9.21%
CCN(CC)CCOc1ccc(C(O)(Cc2ccc(Cl)cc2)c2ccc(C)cc2)cc1 (stereo unspecified) 5.4%
COc1ccc(-c2coc3c(O)c(OC)ccc3c2=O)cc1 -4.78%
Cc1cnc(-n2ncc(C(=O)N(CCO)C(C)C)c2-c2cccs2)nc1-c1ccc(F)cc1 13%
COc1cccc(Cn2c(=O)c(-c3ccccc3)nc3cnc(N4CCNCC4)nc32)c1 27.3%
CCCN(CCC)S(=O)(=O)c1ccc(C(=O)O)cc1
CC1CC2C3CCC4=CC(=O)C=C[C@]4(C)[C@@]3(F)[C@@H](O)C[C@]2(C)[C@@]1(O)C(=O)CO (stereo partly specified) -1.97% [at 75.8 µM]
Cn1cc(NC(=O)c2cc(NC(=O)c3cc(NC=O)cn3C)cn2C)cc1C(=O)NCCC(=N)N 11.1%
Cc1ccccc1-c1cc(N2CCN(C)CC2)ncn1 0.0883%
C=C[C@@H]1c2ccccc2N(S(=O)(=O)c2ccc(C)cc2)[C@H](c2ccccc2)C1(C#N)C#N 3.47%
CCN(CC)C(=O)c1cccc(C)c1 6.96%
O=C(c1cnccn1)N1CCC2(CC1)CN(C(c1ccccc1)c1ccccc1)C2 -3.2%
Cc1cc(Cl)ccc1OCC(=O)NCC1Cc2cc(-c3cnccn3)ccc2O1 (stereo unspecified) 3.41%
CC(C)(C)NCC(O)COc1ccc(NC(=O)NC2CCCCC2)cc1 (stereo unspecified) 4.92%
CCN(CC)C(=O)c1cccnc1 17.1%
c1cncc(-c2cncnc2-n2ccnc2)c1 25.6%
O=c1[nH]c(=S)[nH]c(-c2ccccc2)c1Cc1c(O)ccc2ccccc12 -0.122% [at 75.8 µM]
c1cncc(-c2cc(NCc3cccs3)ncn2)c1 3.25%
COc1cc(C)c(CN2CCc3nnc(C(C)NC(=O)c4cccnc4)n3CC2)cc1C (stereo unspecified) -1.05%
C[C@]12CC[C@@H]3c4ccc(O)cc4CC[C@H]3[C@@H]1CC[C@@H]2O
Cc1noc(C)c1-c1cncnc1NCc1ccccc1 -1.08%
CCCC(CCC)C(N)=O 23.2%
COc1cc(=O)n2c(c1C(=O)N(C)Cc1nonc1C)CCN(Cc1ccccc1F)CC2 16.4%
CC(=O)N1CCC2(CCCN(C(=O)Nc3cccc(C#N)c3)C2)CC1 15.2%
COc1ccccc1-c1cncnc1NCCN1CCOCC1 25.5%
CC(=O)Oc1c(C)c(C)c2c(c1C)CC[C@@](C)(CCC[C@H](C)CCC[C@H](C)CCCC(C)C)O2
COc1ccccc1CCn1c(=O)c(CCc2ccccc2)nc2cncnc21 7.08%
COC(=O)[C@@H]1CCCN1C(=O)c1cnn(-c2nccc(-c3cc(C)sc3C)n2)c1C1CC1 0.942%
C[n+]1cc2c3c(ccc2c2ccc4cc5c(cc4c21)OCO5)OCO3
Cn1c(=O)c(-c2ccc(F)c(F)c2)nc2cncnc21 4.45%
CCc1cc(C(=O)NCc2c(C)ncc3c2CCN(C(=O)C2=CCCC2)C3)no1 16.1%
COc1ccc2c(c1)OCC(Cc1ccc(O)c(OC)c1)C2=O (stereo unspecified) 26.8%
CN(C)C(=S)SC(=S)N(C)C 13.8%
COC(=O)[C@H](Cc1ccccc1)NS(=O)(=O)N[C@@H](Cc1ccccc1)C(=O)OC -11.1%
COC(=O)CC(NC1CCN(c2nc(C)c3cc4c(cc3n2)CCC4)CC1)C(=O)OC (stereo unspecified) 31.8%
CCCCCCCCCCCCCCCCCC(=O)[O][Al] 17.1%
CC(=O)O[C@@H]1CC2CCC1(C)C2(C)C (stereo partly specified) 17.1%
O=C(O)C[C@H]1c2ccccc2S(=O)(=O)N1C1CCCC1 -5.1%
Cc1cccc(-c2cc(=O)c3cc(C)ccc3o2)c1 -1.28%
O=c1cnc2cnc(N3CCOCC3)nc2n1Cc1ccc(F)cc1 21.5%
CC(C)CN1CC2(CCN(S(=O)(=O)c3ccccc3)CC2)C1 15.9%
CC(=O)NCC(=O)NCC1Cc2cc(C)cc(-c3ccccn3)c2O1 (stereo unspecified) -9.15%
Cc1nn(-c2ccccc2)c(C)c1/C=N/N1CCN(Cc2ccccc2)CC1 -1.4% [at 75.8 µM]
O=C(c1csnn1)N1CCC2(CCCN(c3ncccn3)C2)CC1 -1.46%
C=C1C(=C/C=C2\CCC[C@]3(C)[C@@H]([C@H](C)/C=C/[C@@H](O)C4CC4)CC[C@@H]23)C[C@@H](O)C[C@@H]1O 4.06%
Nc1ncnc2c1ncn2[C@@H]1O[C@H](CO)[C@@H](O)[C@H]1O
COc1cccc(C(=O)NCC2Cc3c(F)ccc(-c4ncccn4)c3O2)c1OC (stereo unspecified) 9.82%
O=[N+]([O-])c1cccc(/C=C/c2ccccc2)c1 12.2%
c1ccc(CNc2nc(-c3ccc4c(c3)OCO4)nc3ccccc23)cc1 -13.7%
COc1cc(=O)n2c(c1C(=O)NC(C)c1ccco1)CCN(Cc1cc(C)cc(C)c1)CC2 (stereo unspecified) 13.6%
COc1ccc(C(=O)N2CCC3(CCCN(c4ccccc4)C3)CC2)cc1 21.3%
COC(=O)C1CCN(Cc2ccc3c(c2)CN(C(=O)c2ccc(-n4cnnn4)cc2)CCO3)CC1 -21.2%
N[C@H](CO)Cc1cnc[nH]1 10.9%
CN(C)Cc1ccccc1-c1nc(NC2CCNCC2)c2ccccc2n1 2.54%
Cc1ccc(CN2[C@@H](c3ccccc3)COCCS2(=O)=O)cc1 -18.6%
COc1cc2c3cc1Oc1cc(ccc1O)CC1c4c(cc(OC)c(O)c4Oc4ccc(cc4)CC3N(C)CC2)CC[N+]1(C)C (stereo unspecified) 19.4%
Cn1cc(-c2nc3cncnc3n(Cc3ccccc3Cl)c2=O)c2ccccc21 -11.1%
CC1(C)SC2C(NC(=O)C(NC(=O)N3CCNC3=O)c3ccccc3)C(=O)N2C1C(=O)O (stereo unspecified) -1.44%
CC(=O)O[C@@]12CO[C@@H]1C[C@H](O)[C@@]1(C)C(=O)[C@H](O)C3=C(C)[C@@H](OC(=O)[C@H](O)[C@@H](NC(=O)OC(C)(C)C)c4ccccc4)C[C@@](O)([C@@H](OC(=O)c4ccccc4)[C@H]21)C3(C)C
COc1ccc(-c2cn(CC3CCCCC3)nn2)cc1 6.43%
COc1ccc(CNC(=O)C[C@H]2C(=O)N(Cc3ccccc3)C[C@@H]2Cc2ccccc2)cc1 -4.31%
COc1cccc(Nc2ncc3nc(-c4ccc(F)cc4)c(=O)n(C)c3n2)c1 9.55%
CC(CN(C)C)CN1c2ccccc2Sc2ccc(C(F)(F)F)cc21 (stereo unspecified) 12%
CN(CC(=O)O)c1ccc(/C=C/c2ccnc3ccccc23)cc1 17.6%
COc1ccccc1N1CCN(CCN(C(=O)C2CCCCC2)c2ccccn2)CC1 5.61% [at 75.8 µM]
CN1C(=O)CC(c2ccccc2)C1=O (stereo unspecified) 0.508%
COc1cc2c(cc1OC)-c1cc3cc(OC)c(OC)cc3c(=O)n1CC2 11.9%
CC(=O)[C@H]1CC[C@H]2C3CC=C4C[C@@H](O)CC[C@]4(C)C3CC[C@]12C (stereo partly specified) 3.37%
COc1cc(=O)n2c(c1C(=O)NCc1nccs1)CCN(Cc1ccccc1F)CC2 -5.61%
O=c1c(-c2cc(F)cc(F)c2)nc2cnc(Oc3ccccc3)nc2n1C1CC1 17.6%
CN(C)CCN(Cc1ccccc1)c1ccccn1 23.3%
O=C(c1cccc(F)c1)N1CCC2(CCCN(Cc3nccs3)C2)CC1 14.2%
COc1cc(=O)n2c(c1C(=O)N(C)Cc1nonc1C)CCN(C(=O)c1ccc(C)cc1C)CC2 6.14%
CN(C)c1ccc(-c2cncnc2NCc2cccs2)cc1 17.1%
O=C(O)CC(O)(CC(=O)O)C(=O)O
COc1ccc(/C=C/C(=O)NCC2Cc3cc(Cl)cc(-c4ncccn4)c3O2)cc1 (stereo unspecified) -6.18%
Cc1ccnc2ccc(Br)cc12 19.9%
Cc1o[nH]c(=O)c1CC[C@H](N)C(=O)O 11.1%
C/C=C1\C2C=C(C)CC1(N)c1ccc(=O)[nH]c1C2 (stereo unspecified) 1.35% [at 320 µM]
COc1cccc2c(=O)c3ccccc3oc12 20.6%
COc1cc(OC)c2c(=O)c(O)c(-c3ccc(OC)c(OC)c3)oc2c1 16.2%
Nc1nc(NC2CC2)c2ncn([C@@H]3C=C[C@@H](CO)C3)c2n1 11.5%
CNCc1ccccc1 -16.8%
COc1ccc(NC(=O)N2CCC3(CC2)CCN(C(=O)c2cccc(F)c2)CC3)cc1 7.22%
O=C(NNCNNC(=O)c1ccncc1)c1ccncc1 12.8%
C=C1C[C@@]23CC[C@H]4[C@@](C)(CCC[C@@]4(C)C(=O)O)[C@@H]2CC[C@]1(O)C3 -4.87% [at 75.8 µM]
CNC1C(O)C(O)C(CO)O[C@H]1OC1C(O[C@@H]2C(O)C(O)[C@@H](N=C(N)N)C(O)C2N=C(N)N)OC(C)[C@]1(O)C=O (stereo partly specified) 4.86%
O=C(O)Cc1ccccc1Oc1ccc(Cl)cc1Cl 14.1%
COc1cc(OC)cc(OC)c1 17.6%
COc1cc(O)c(C(=O)c2ccccc2)cc1S(=O)(=O)O 21.5%
CCCCC(CC)COC(=O)c1ccc(N(C)C)cc1 (stereo unspecified) -9.76%
COC(=O)C1CCN(Cc2ccc3c(c2)CN(C(=O)C(C)N2CCOCC2)CCO3)CC1 (stereo unspecified) 12.2%
Cn1cc(-c2nc3cnc(N4CCOCC4)nc3n(C3CC3)c2=O)c2ccccc21 2.35%
Cc1cccc(CNc2cc(-c3c(C)noc3C)ncn2)c1 0.103%
O=c1[nH]c(=O)n(C2CC(O)C(CO)O2)cc1F (stereo unspecified) -5.22%
Cc1ccccc1-c1ccc(CN2CCc3nnc(C(NS(C)(=O)=O)C(C)C)n3CC2)cc1 (stereo unspecified) -0.552%
OCC(O)COc1ccc(Cl)cc1 (stereo unspecified) 24.4%
C[C@H](CCC(=O)O)[C@H]1CC[C@H]2[C@H]3C(CC[C@]12C)[C@@]1(C)CC[C@@H](O)C[C@H]1C[C@H]3O (stereo partly specified)
Nc1ccc(/C=C/c2ccnc3ccccc23)c(N)c1 32.5%
O=C(C[N+]1(CC(O)c2ccccc2)CCCCC1)c1ccccc1 (stereo unspecified) -7.98%
COc1cc2c(cc1O)C(Cc1ccc(O)cc1)N(C)CC2 (stereo unspecified) 22.5%
COc1ncc2nc(-c3ccc(F)cc3)c(=O)n(C[C@H]3CCCO3)c2n1 9.82%
COc1cc(CNc2nc(C)c(-c3ccn(CC4CCCN(C)C4)n3)s2)ccc1F (stereo unspecified) 11.6%
COc1cccc(CC(=O)NCC2Cc3cc(Cl)cc(-c4ncccn4)c3O2)c1 (stereo unspecified) 6.54%
CC(=O)Nc1ccc(S[C@@H](CCN2CC[C@H](O)CCC2=O)c2ccccc2)cc1 10.7%
